From PubChem BioAssay AID1345083 (National Center for Advancing Translational Sciences (NCATS), 2018)
Where “and” joins values, the source holds several entries; their conditions need not be identical. Equal entries are not always repeated. Among all 94,000 compounds or so, about 6,200 (6.6%) were called active. The shares of active, inactive and inconclusive entries below differ from those in the screen. Calls follow the shape of the dose curve; as a rule, active = well fitted inhibition curve with a large enough effect; inconclusive = small, poorly fitted or top-dose-only effect; inactive = flat fitted curve, though single readings scatter. Potencies beside an inconclusive call are fits to weak or partial responses and may not hold up.
% is scaled to controls: 0 for no effect and ±100 for the full control effect; potency is read from the fitted curve at half-maximal effect; tags tell the direction and shape of the fitted curve.

Test: Cytotoxic Profiling in HEK 293 Cell Line of Diverse Libraries Using Quantitative High-Throughput Screening; also: nearly all actives have a fitted effect of over 60% in size
Settings: HEK 293 viability, ATP luminescence (CellTiter-Glo), 48-72 h; activity change, negative = cytotoxicity: at 115 µM (top of the series) unless noted; series mostly up to 115 µM
Outline: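 HEK 293 cells seeded at 250 cells/well were exposed to compound for 48 or 72 hr at 37 degree Celsius. Viability taken as ATP content by CellTiter-Glo luminescence.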
For `COc1ccc(NC(=O)Cn2ccn3nc(-c4ccccc4)c(CO)c3c2=O)cc1OC`, the Potency was inconclusive: 79.4 µM [inhibitor, single point].
In the case of `O=C(NC1CCCN(c2nc3ncccc3o2)C1)c1ccc(C(F)(F)F)cc1` (stereo not given), the Potency was inconclusive: 89.1 µM [inhibitor, single point].
With `O=C(NCc1cccnc1)[C@@H]1C[C@@H](O)CN1C1CCN(C(=O)c2cccs2)CC1` the “activity change, negative = cytotoxicity” value was inactive: 2.08%.
For `O=C(NCc1ccccc1)NC[C@H]1O[C@@H]2C[C@@H](CC(=O)N3CCOCC3)O[C@@H]2[C@@H]1O`, the “outcome” value was “inactive [at 172 µM]”.
With `COc1cccc(CN2CCCCC2c2nc(CCOCC3CC3)no2)c1` (stereo not given) the Potency was inconclusive: 20 µM [inhibitor, full curve].
With `CC(=O)c1ccc(NC(=O)c2cc3n(n2)CC(c2ccc(Br)cc2)OC3)cc1` (stereo not given) the Potency was inconclusive: 50.1 µM [inhibitor, partial curve, poor fit].
For `Cc1ncc2n1C(=O)N(C1CCN(Cc3cccc(C(F)(F)F)c3)CC1)C2`, the Potency was inconclusive: 31.6 µM [inhibitor, partial curve, poor fit] and inconclusive: 89.1 µM [inhibitor, single point].
For `O=C1NC(=NC2CCCCC2)C2(CCCN(Cc3ccc(F)cc3)C2)N1c1cccnc1` (stereo not given), the Potency was inconclusive: 79.4 µM [inhibitor, partial curve].
In the case of `CCC1Oc2ccc(NC(=O)c3ccc(OC)c(OC)c3)cc2CN(Cc2ccc(Cl)cc2)C1=O` (stereo not given), the Potency was inconclusive: 44.7 µM [inhibitor, partial curve, poor fit].
For `CCC(=O)NC[C@@H]1CC[C@H]2C[C@@H]1C2(C)C`, the “activity change, negative = cytotoxicity” value was inactive: -10.9% [at 230 µM].
For `Cn1nc(CN2CCOCC2)c2c1CCN(S(=O)(=O)c1cccc(F)c1)C2`, the “activity change, negative = cytotoxicity” value was inactive: -20%.
For `Cc1nccn1CCCC(=O)N1C[C@@H](F)C[C@H]1CNC(=O)CC(C)C`, the Potency was inconclusive: 89.1 µM [inhibitor, single point].
For `COc1ccc(-c2ccc(C(=O)N3CCN(C(=O)Nc4ccc(Cl)cc4)CC3)cc2)nn1`, the Potency was inconclusive: 39.8 µM [inhibitor, partial curve, poor fit].
In the case of `COc1cccc(CNC(=O)c2ccc3nnc(-c4cc[nH]c4)n3c2)c1`, the “activity change, negative = cytotoxicity” value was inactive: -3%.
For `Cc1nc(-c2c3n(c(=O)n(CC(=O)Nc4ccccc4Cl)c2=O)CCCC3)no1`, the “activity change, negative = cytotoxicity” value was inactive: -0.302%.
In the case of `O=C(c1nnc(COc2cccc(N3CCOCC3)c2)n1Cc1ccccc1)N1CCC[C@@H]1c1ccc(Br)cc1`, the Potency was inconclusive: 31.6 µM [inhibitor, full curve, poor fit].
In the case of `COc1nc2nc(CCc3ccccc3)n(C)c2cc1Nc1ccncn1`, the “activity change, negative = cytotoxicity” value was inactive: -2.72% [at 172 µM].
For `COC[C@H]1NC(=O)CC[C@H]1C(=O)NCCC1=CCCCC1`, the Potency was inconclusive: 79.4 µM [inhibitor, single point].
In the case of `COc1ccc(-c2nnc3ccc(NCCc4ccccc4)nn23)nc1`, the Potency was inconclusive: 112 µM [inhibitor, single point].
In the case of `O=C(c1cc(F)ccc1Cl)N1CCC(n2cc(-c3nc(C4CC4)no3)nn2)C1` (stereo not given), the Potency was inconclusive: 89.1 µM [inhibitor, partial curve].
For `CN1CCN(c2ccc3nnc(-c4cc(C(=O)Nc5cccc(Cl)c5)ccn4)n3n2)CC1`, the Potency was inconclusive: 89.1 µM [inhibitor, single point].
For `Cc1ccc(CN2CC(Oc3ccc(-c4noc(-c5cccnc5)n4)cc3)C2)o1`, the Potency was inconclusive: 50.1 µM [inhibitor, partial curve, poor fit].
With `COc1ccc(-c2ccccc2C(=O)N2CCC(NC(=O)c3cccc(Cl)c3)CC2)nn1` the “activity change, negative = cytotoxicity” value was inactive: -7.61%.
With `Cc1ccccc1C(=O)N1CCC2(CC1)NC(=O)N(c1cccc(F)c1)N2` the Potency was inconclusive: 3.98 µM [inhibitor, full curve, poor fit].
For `CN1CCC(C(=O)N2Cc3ccccc3CC3(CCCN(C)C3)C2)CC1` (stereo not given), the “activity change, negative = cytotoxicity” value was inactive: -27.4%.
For `Cc1ccc(-c2cc(C(=O)N3CCC(c4ncccn4)CC3)c3cnn(C)c3n2)c(C)c1`, the Potency was inconclusive: 89.1 µM [inhibitor, single point].
With `O=C(N1CCCC(n2cc(-c3nc(C4CC4)no3)nn2)C1)C1(c2ccccc2)CC1` (stereo not given) the Potency was inconclusive: 28.2 µM [inhibitor, partial curve, poor fit].
For `COc1ccccc1-n1c(=O)c(C(=O)N2CCN(C(=O)c3ccccc3Cl)CC2)nc2cccnc21`, the “activity change, negative = cytotoxicity” value was inactive: -10.4%.
For `O=C(NCCc1ccccc1)N(C1CCOCC1)C1CCN(Cc2ccsc2)CC1`, the Potency was inconclusive: 89.1 µM [inhibitor, single point].
For `CC(C)CC(=O)N1CCC(Oc2ccccc2-c2nc(C3CCOCC3)no2)C1` (stereo not given), the “activity change, negative = cytotoxicity” value was inactive: -37.7%.
With `O=C(Nc1ccc(OC(F)(F)F)cc1)c1cc(-c2ccc[nH]2)n[nH]1` the Potency was active: 12.6 µM.
With `Cn1ncc2c(C(=O)NCc3ccc(F)cc3F)cc(-c3ccccc3C(F)(F)F)nc21` the Potency was active: 31.6 µM.
For `O=C(O)CCn1ncc2cc(OC3CCN(C(=O)Oc4ccccc4Cl)CC3)ccc21`, the “activity change, negative = cytotoxicity” value was inactive: -25.9%.
In the case of `Clc1ccc(Cn2ccnc2-c2cc3n(n2)CCCNC3)cc1Cl`, the Potency was inconclusive: 44.7 µM [inhibitor, partial curve].
For `CC1(C)[C@H](Cc2cc(CN3CCOCC3)on2)C[C@@H]1NC(=O)Nc1ccc(F)cc1`, the Potency was inconclusive: 79.4 µM [inhibitor, partial curve].
With `COc1ccc2ccc(OCc3nc(C(=O)N(C)CC4CCCO4)co3)cc2c1` (stereo not given) the Potency was inconclusive: 50.1 µM [inhibitor, partial curve, poor fit].
For `Cn1c(=O)n(C)c2cc(S(=O)(=O)NCC3(O)CCCNCC3)ccc21` (stereo not given), the “activity change, negative = cytotoxicity” value was inactive: -18.5%.
In the case of `COc1ccc(-c2noc([C@@H](C)NC(=O)C3CCCC3)c2C(=O)O)cc1`, the “activity change, negative = cytotoxicity” value was inactive: -0.781% [at 172 µM].
In the case of `Fc1cccc(-c2cnc(Nc3cccnc3)c3c2CCO3)c1`, the Potency was inconclusive: 79.4 µM [inhibitor, partial curve, poor fit].
In the case of `COc1ccccc1NC(=O)NC[C@H]1O[C@H](Cc2cc(COc3ccccc3)on2)CC[C@@H]1O`, the Potency was inconclusive: 44.7 µM [inhibitor, partial curve, poor fit].
In the case of `O=C(N1CC(Oc2ccccc2-c2nc(C3CC3)no2)C1)C1(c2ccccc2)CC1`, the Potency was inconclusive: 50.1 µM [inhibitor, partial curve, poor fit].
In the case of `CCC(=O)NC1CCN(c2ccnc3ccnn23)C1` (stereo not given), the “activity change, negative = cytotoxicity” value was inactive: -11.1% [at 172 µM].
With `O=C(C1CCCC1)N1CC2(CCN(Cc3ccccn3)C2)Cc2ccccc21` (stereo not given) the Potency was inconclusive: 70.8 µM [inhibitor, partial curve, poor fit].
For `CN1C(=O)CC[C@]2(C(=O)NCc3ccco3)CCCC[C@@H]12`, the Potency was inconclusive: 50.1 µM [inhibitor, partial curve, poor fit].
In the case of `COCC(=O)N1CCN2C(=O)c3cc(-c4cccc(C(F)(F)F)c4)ccc3NC(=O)[C@H]2C1`, the Potency was inconclusive: 56.2 µM [inhibitor, partial curve, poor fit].
In the case of `COC(=O)[C@@H]1Cc2ncn(Cc3ccc(Cl)cc3)c2CN1Cc1cccs1`, the Potency was inconclusive: 79.4 µM [inhibitor, partial curve, poor fit].
For `COC(=O)[C@@H]1Cc2c([nH]c3ccccc23)[C@H]2C[C@@H](NC(C)C)C[C@@H](c3ccccc3)N21`, the Potency was active: 35.5 µM.
For `CCOC(=O)C1CCN(C(=O)c2nc3sccn3c2-c2cccc(C(F)(F)F)c2)CC1`, the “outcome” value was “inactive”.
With `CCCC(=O)NC1CCN(c2cnn(CC)c(=O)c2)CC1` the “activity change, negative = cytotoxicity” value was inactive: -5.04%.
In the case of `CCC(=O)NCCC1CCN(C(=O)Nc2ccc(C)c(F)c2)CC1`, the “activity change, negative = cytotoxicity” value was inactive: 9.3%.
For `COc1ccccc1-c1cccc(C(=O)N2CCN([S+](=O)([O-])c3cccc(C(F)(F)F)c3)CC2)c1`, the Potency was inconclusive: 22.4 µM [inhibitor, full curve].
With `C#CCNC(=O)C1CCN(Cc2ccccc2-c2cccnc2)CC1` the “activity change, negative = cytotoxicity” value was inactive: -16.5% [at 172 µM].
With `COc1ccc(OC)c(CNC(=O)c2ccc(-c3ccc(N4CCSCC4)nc3)cc2)c1` the Potency was inconclusive: 11.2 µM [inhibitor, full curve].
In the case of `COc1cccc(-c2cc(C3CCN(C(=O)Nc4ccccc4F)CC3)[nH]n2)c1`, the Potency was inconclusive: 50.1 µM [inhibitor, partial curve, poor fit].
For `CCNC(=O)c1ccc2c(c1)C1(CCN(CC3CC3)C1)CN2Cc1ccccc1` (stereo not given), the Potency was inconclusive: 70.8 µM [inhibitor, partial curve, poor fit].
For `CCOCCCNC(=O)c1cc2c(=O)[nH]c(-c3ccccc3)cn2n1`, the Potency was inconclusive: 31.6 µM [inhibitor, full curve].
For `CC(C)c1cnc(C2CCCN(C(=O)OC(C)(C)C)C2)[nH]1` (stereo not given), the “activity change, negative = cytotoxicity” value was inactive: -27.3% [at 172 µM].
For `CCC(=O)N1Cc2ccccc2CC2(CCCN(Cc3cccnc3)C2)C1` (stereo not given), the “activity change, negative = cytotoxicity” value was inactive: -4.91%.
In the case of `O=C1[C@@H]2C[C@@H](O)CN2C2(CN(Cc3ccccc3F)C2)C(=O)N1Cc1cccc(Cl)c1`, the “activity change, negative = cytotoxicity” value was inactive: -17.8%.
For `CC(C)(C)CC(=O)N1CCN2C(=O)c3cc(-c4ccc(Cl)cc4)ccc3NC(=O)[C@H]2C1`, the Potency was active: 39.8 µM.
For `CCCC(=O)N1Cc2ccccc2CC2(CCCN(Cc3ccncc3)C2)C1` (stereo not given), the “activity change, negative = cytotoxicity” value was inactive: -14.3%.
In the case of `Cn1nc(C(=O)N2CCCCCCNC(=O)[C@@H]3CCCC[C@@H]32)c2ccccc21`, the Potency was inconclusive: 56.2 µM [inhibitor, partial curve, poor fit].
With `Cc1noc(C)c1-c1cc2c(c(-c3ccc(F)c(Cl)c3)c1)C(=O)N(C)C2` the Potency was inconclusive: 12.6 µM [inhibitor, full curve, poor fit].
For `CO[C@H]1C(=O)N(C2CCN(S(=O)(=O)c3cccnc3)CC2)[C@H]1c1ccncc1`, the “activity change, negative = cytotoxicity” value was inactive: 4.21%.
For `O=C(NCc1ccccc1)C1CC(=O)N(C2CN(Cc3ccc(C(F)(F)F)cc3)C2)C1` (stereo not given), the Potency was inconclusive: 50.1 µM [inhibitor, partial curve, poor fit].
